Results reported in PubChem BioAssay AID1508623 (National Center for Advancing Translational Sciences (NCATS), 2021).
In all, about 48,000 compounds went through this assay and about 450 (0.94%) were called active. The inconclusive results got no clear call from the source; some entries with a clear call stand among them for comparison. The call rests on the fitted dose curve; in most records, active means well fitted inhibition curve with a large enough effect; inconclusive means small, poorly fitted or top-dose-only effect; inactive means no such curve, though single readings can be large or run the other way. A potency beside an inconclusive call is a rough fit, not a confirmed value.

Assay: Primary qHTS for Identification of Small Molecule Inhibitors of Huntingtin Promoter Activity; further: nearly all actives have a fitted effect of over 50% in size
Conditions: HEK293 HTT promoter firefly luciferase reporter (activity 0% = vehicle and -100% = no light), 24 h; series mostly up to 57.5 µM
Summary of the method: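 Luminescence was read after Dual-Glo reagent and a 10 min room-temperature incubation. Values were normalized to vehicle (0% activity) and zero RLU (-100% activity). Reporter HEK293 cells had been exposed to compounds (up to 57.5 uM final) for 24 h.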
Potency means the concentration at half of the fitted maximal effect; tags describe the fitted curve by direction and shape.

Potency, active:
O=C(Nc1ccccc1F)c1ccc2c(Cl)c3c(nc2c1)CCC3 12.6 µM

Potency, inconclusive:
COc1ccccc1S(=O)(=O)Cc1ccc(C(=O)NCc2ccc(Cl)cc2)o1 39.8 µM [inhibitor, single point], CC(=O)c1c(C)oc2c1cc(NS(=O)(=O)c1ccc(Br)cc1)c1ccccc12 10 µM [inhibitor, partial curve, poor fit], COC(=O)c1ccc(NC(=O)c2nc(-c3ccc(Cl)cc3)n3c2CCCCC3)cc1 7.08 µM [inhibitor, partial curve], O=C(NCc1cccc(Br)c1)c1cnn(-c2ccc(F)cc2)c1-n1cccc1 22.4 µM [inhibitor, partial curve, poor fit], O=C(CSc1nccn1-c1ccc(Cl)cc1)Nc1ccc(Cl)c(Cl)c1 39.8 µM [inhibitor, single point], COc1cc(NC(=O)N2c3ccccc3Sc3ccccc32)cc(OC)c1 25.1 µM [inhibitor, partial curve, poor fit], CCCOC(=O)c1c(NC(=O)C(C)Sc2nc(-c3ccccc3)cc(C(F)(F)F)n2)sc(C(=O)N(C)C)c1C (centres undefined) 28.2 µM [inhibitor, single point], CN(C)CCNC(=O)C1CCN(Cc2cc3ccccc3n2Cc2ccccc2)CC1 39.8 µM [inhibitor, single point], C=CCNC1=C2C[C@@H](C)C[C@H](OC)[C@@H](O)[C@@H](C)C=C(C)[C@H](OC(N)=O)[C@@H](OC)C=CC=C(C)C(=O)NC(=CC1=O)C2=O 4.32 µM [inhibitor, full curve], Cc1csc(NC(=O)c2sc3nc4c(c(C(F)(F)F)c3c2N)CCC4)n1 0.0432 µM [inhibitor, full curve], CC(=O)c1ccc(NC(=O)c2cnn(-c3cccc(F)c3)c2-n2cccc2)cc1 39.8 µM [inhibitor, single point], COc1ccc(NC(=O)CSc2nc(-c3ccc(F)cc3)[nH]c2-c2ccc(C)cc2)cc1OC 39.8 µM [inhibitor, single point], CCOc1ccc(CCNC(=O)c2ccc3c(c2)c(C)c(C)n3Cc2ccccc2)cc1OCC 14.1 µM [inhibitor, partial curve, poor fit], O=S(=O)(c1ccc(Cl)cc1)c1nc(-c2ccco2)oc1SCc1ccc(F)cc1 14.1 µM [inhibitor, partial curve, poor fit], COc1ccc(CCN2C(=O)c3[nH]nc(-c4ccccc4O)c3C2c2ccc(OC)cc2)cc1 (centres undefined) 25.1 µM [inhibitor, single point], COc1ccccc1CNC(=O)CCC1N=C2c3ccccc3N=C(SCc3ccc(C)cc3C)N2C1=O (centres undefined) 31.6 µM [inhibitor, single point], COc1ccc(NC(=O)CN(c2cc(C)cc(C)c2)S(=O)(=O)c2c(C)noc2C)cc1Cl 20 µM [inhibitor, single point], COc1ccc(-c2nc(SCC(=O)Nc3ccc4c(c3)OCCO4)c(-c3ccc(C)cc3)[nH]2)cc1OC 39.8 µM [inhibitor, single point], CC(=O)c1ccc(N2CCN(C(=O)C3CCN(S(=O)(=O)c4c(C)noc4/C=C/c4ccc(C)cc4)CC3)CC2)cc1 35.5 µM [inhibitor, partial curve], Cc1ccc(C(=O)N2CCc3cc(CNS(=O)(=O)c4cccs4)ccc32)cc1 25.1 µM [inhibitor, partial curve], COc1ccc(-c2noc(CSc3nnc(C)n3-c3ccc(C)cc3)n2)cc1OC 25.1 µM [inhibitor, single point], COc1ccccc1N1CCN(C(=O)c2cn(CC(C)C)c(=O)c3c2c2ccccc2n3C)CC1 31.6 µM [inhibitor, partial curve, poor fit], O=C(CSCc1cnn(-c2ccccc2)c1-n1cccc1)NCc1ccc(Cl)cc1 22.4 µM [inhibitor, partial curve, poor fit], Cc1nc2ccn(Cc3ccccc3)c(=O)c2cc1C(=O)N1CCN(c2ccccc2F)CC1 25.1 µM [inhibitor, single point], Cc1cc(F)ccc1S(=O)(=O)Nc1ccc2oc3c(c2c1)CC(C)CC3 (centres undefined) 28.2 µM [inhibitor, single point], CCOc1ccccc1C(=O)NC1(C(F)(F)F)NC(=O)N(CCc2ccc(OC)c(OC)c2)C1=O (centres undefined) 20 µM [inhibitor, single point], Cc1ccc(-n2nc(CO)c(C(=O)NC(C)CCCc3ccccc3)n2)cc1 (centres undefined) 39.8 µM [inhibitor, single point], COc1ccc(NC(=O)c2c(NCc3sccc3C)sc3c2CCCC3)c(OC)c1 28.2 µM [inhibitor, partial curve], CCC(=O)N1CCc2cc(S(=O)(=O)CCC(=O)N3CCN(c4ccc(Cl)cc4)CC3)ccc21 20 µM [inhibitor, partial curve, poor fit], CCCn1c(=O)sc2cc(NC(=O)c3ccc(OC)c(Br)c3)ccc21 39.8 µM [inhibitor, single point], CCCOc1ccc(CN(C(=O)Cc2coc3ccc(CC)cc23)C2CCS(=O)(=O)C2)cc1 (centres undefined) 28.2 µM [inhibitor, single point], Cc1cccc(NC(=O)c2ccc3nc(C(C)C)oc3c2)c1C 31.6 µM [inhibitor, partial curve, poor fit], COc1cccc(NC(=O)CSC2=Nc3ccccc3C3=NC(CCC(=O)NCCc4ccccc4)C(=O)N23)c1 (centres undefined) 39.8 µM [inhibitor, single point], COc1ccc(CCNC(=O)c2ccc3c(c2)CCN3S(=O)(=O)c2ccc(C)cc2)cc1 31.6 µM [inhibitor, partial curve], CC(C)(O)Cn1c(NC(=O)c2ccc(-c3cn[nH]c3)s2)nc2cc(CN3CCOCC3)ccc21 3.43 µM [inhibitor, full curve], CCOc1ccc(S(=O)(=O)Nc2cccc(-c3ccc(OCC)nn3)c2)cc1 12.6 µM [inhibitor, partial curve, poor fit], COc1ccccc1CCNC(=O)C(=O)NCC(c1cccs1)S(=O)(=O)c1cccs1 (centres undefined) 25.1 µM [inhibitor, partial curve, poor fit], O=C(Nc1ccc(S(=O)(=O)N2CCCCC2c2cccnc2)cc1)c1ccc(Br)cc1 (centres undefined) 20 µM [inhibitor, partial curve, poor fit], CCC1=Nc2cc(C(=O)NC3CCC(C)CC3)ccc2Sc2ccc(C)cc21 (centres undefined) 5.01 µM [inhibitor, full curve], CC(C)c1ccc(NC(=O)c2ccc(F)c(S(=O)(=O)N3CCc4ccccc43)c2)cc1 2 µM [inhibitor, full curve, poor fit], O=C(C1CCCN(S(=O)(=O)c2cccc3nsnc23)C1)N1CCN(c2ccccc2F)CC1 (centres undefined) 20 µM [inhibitor, partial curve, poor fit], CCC(C)NC(=O)CSc1nc2n[nH]c(C)c2c(=N)n1-c1cc(Cl)ccc1C (centres undefined) 22.4 µM [inhibitor, partial curve, poor fit], COc1ccc(NC(=O)CSc2ccc3nc(-c4ccccc4)cn3n2)c(OC)c1 39.8 µM [inhibitor, single point], COC(=O)c1ccc(NC(=O)CSc2nc(C)cc(C)c2C(=O)Nc2ccccc2)cc1 14.1 µM [inhibitor, partial curve, poor fit], CCOc1cc2c(c(F)c1OCC)C(=N)N(CC(=O)c1cc(N3CCOCC3)c(OC)c(C(C)(C)C)c1)C2 34.3 µM [inhibitor, partial curve, poor fit], CCOC(=O)c1cc(C)n(CC2CCC(C(=O)Nc3ccc(C(C)=O)cc3)CC2)c1C (centres undefined) 14.1 µM [inhibitor, partial curve, poor fit], COc1ccc(N2CCN(C(=O)c3cccc(-n4c(C)nc5cccnc54)c3)CC2)cc1 25.1 µM [inhibitor, partial curve, poor fit]

Potency, inactive:
COc1ccc(-n2ncc3c(NC4CCCC4)ncnc32)cc1, CN[C@@H](C)C(=O)N[C@H]1CCCC[C@H]2CC[C@@H](C(=O)N[C@@H](c3ccccc3)c3cn(CCCCc4ccc(CCCCn5cc([C@@H](NC(=O)[C@@H]6CC[C@@H]7CCCC[C@H](NC(=O)[C@H](C)NC)C(=O)N76)c6ccccc6)nn5)cc4)nn3)N2C1=O, CN1CCc2c(sc(NC(=O)CSc3ccccc3)c2-c2nc3ccccc3s2)C1, Cc1cccc(NC(=O)COC(=O)CCCC2=NS(=O)(=O)c3ccccc3N2)c1, COc1cc(NS(=O)(=O)c2cnc(N)nc2)cc(OC)c1, CCOc1ccc(/C=C/C(=O)Nc2sc3c(c2C(=O)OC)C(C(=O)OC)CC3)cc1 (centres undefined)
